# Experimental data taken from the supplement of paper PMC3334620.
# The full ranking holds about 33,000 sequences; the median of “E-score (-0.5 to 0.5)” is about -0.016, and the highest 2% start at about 0.31. The list shows a part of the results.
# Molecular target: Cst6 (UniProt P40535)
# Test: PBM E-score (8-mer binding enrichment) (E-score (-0.5 to 0.5)); higher = stronger / more preferred TF binding; most listed sequences are background and not binding sites
# Settings: protein concentration: 200 nM; construct: GST-DNA-binding domain
# Procedure: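 Universal 'all 10-mer' protein binding microarrays (Agilent AMADID 015681) probed with GST-tagged S. cerevisiae TFs (full-length or DBD) made by in vitro transcription/translation (PURExpress), about 100-200 nM. Bound TF was detected with fluorescent anti-GST. Each ungapped 8-mer (which stands for itself and its reverse complement) is scored by the PBM enrichment score (E-score), a modified Wilcoxon-Mann-Whitney statistic from -0.5 to +0.5, computed with the Universal PBM Analysis Suite. Scale: above 0.35 generally sequence-specific binding.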
row,Sequence,PBM E-score
1,ACGACCGC,-0.276
2,CTTATAAA,0.138
3,CGCAAACA,0.151
4,TCAGAAGA,-0.0397
5,GTCTAGTA,0.0466
6,ATGGCTGC,-0.0563
7,ACTAGTTA,-0.0795
8,ACGGAACG,0.132
9,CCTAATAC,0.0951
10,AACTTTAC,0.098
11,ATGCACCA,0.0534
12,AAGCGAAT,0.149
13,CCGGTAGG,-0.201
14,GCTTCTCA,-0.176
15,CACTCGGC,-0.0198
16,AGTCTTTC,-0.164
17,AACTACTC,0.0862
18,CCTCGGGA,-0.236
19,AGCTTCAT,-0.0493
20,CCATATCA,0.13
21,CGACCCGC,-0.128
22,ACGCCTGG,0.0268
23,GTTTTTTA,0.213
24,CGGGCAAC,-0.256
25,GTACCACA,0.109

row,Sequence,PBM E-score
1,CATAATAG,0.202
2,CCGAGTCC,-0.225
3,AAGATGCA,0.172
4,TAATTGAA,0.156
5,AGACGAAA,0.134
6,CCAGCGCC,-0.137
7,AATCCCAT,-0.0902
8,GATCCCGC,-0.175
9,CGAGATCG,-0.109
10,ATAAATGA,0.274
11,CGCGTCCA,-0.124
12,GGATACCC,-0.266
13,CGCCTTTC,0.118
14,GGAACGAC,-0.176
15,GACGAAGC,-2e-05
16,CATCCCCC,-0.346
17,CGTCCGAC,-0.102
18,ATATAGTA,0.19
19,GCCGCGAA,-0.109
20,CTAATAGA,0.127
21,ACAAGACC,-0.294
22,AAGTAGAA,0.113
23,ACCAGGAG,-0.28
24,CGAAATAG,0.0163
25,CTCGAAGC,0.00149

row,Sequence,PBM E-score
1,TCTGCGCA,-0.136
2,CTCATAAG,-0.0254
3,AGAGGTAC,-0.262
4,AATTCCTC,0.05
5,CCTATATC,0.0351
6,GTCGTGGA,-0.0278
7,ACATGAGT,-0.0508
8,ACTTGAGC,-0.224
9,GATTTTAC,0.133
10,ATAACCCC,-0.224
11,CAGTACTA,-0.0344
12,CCGTGTAC,0.13
13,ATCGGGGC,-0.337
14,ACCAAGGA,-0.0786
15,AATAGACT,0.0159
16,ACTCTCCC,-0.245
17,ATCGCACG,0.00811
18,GAGCGATC,-0.228
19,TCGGCAAA,0.00923
20,AAGCGCGA,-0.0328
21,GACATAGC,0.112
22,CTTCCATC,-0.0839
23,GATCTTGC,0.0284
24,CGACCAGA,-0.109
25,ATCAGTTG,0.133

row,Sequence,PBM E-score
1,GTCGTTAA,-0.0432
2,CCCAAAAC,0.105
3,AGCCCCTC,-0.278
4,CATTATGA,0.272
5,CACTAGTG,-0.128
6,CGCACTAC,-0.0555
7,CCAGCTTC,-0.0983
8,CCCCTACG,-0.298
9,CACGGTAG,-0.0968
10,ACCACTTG,-0.163
11,CAAGGATA,-0.023
12,CTGAATAA,0.232
13,TAATTATA,0.299
14,GGCGAAGA,-0.191
15,AGACGGGG,-0.288
16,TCCGATAA,-0.208
17,AGTGGATA,-0.00533
18,GAGTATGA,0.169
19,ACTATTGA,0.202
20,CGGGGGAG,-0.276
21,TGCACTAA,0.135
22,AGCACATC,-0.0663
23,AGATTCGG,0.0352
24,GACGGATA,0.135
25,ATCGCTTA,-0.0261

row,Sequence,PBM E-score
1,AGTTTCCA,-0.0185
2,ATTGCTGG,-0.0529
3,ACGTCTTG,0.0585
4,TATCCACA,-0.142
5,CTATGGAC,-0.0325
6,CGTAGCTA,-0.0668
7,AATAATCC,0.0992
8,GTACCTAA,0.00811
9,ACCCGCCC,0.103
10,AACTCTGG,-0.144
11,CTGGCTAC,-0.133
12,CGGGCTGC,-0.265
13,GATTTATA,0.25
14,AACCCTGC,-0.187
15,CACATATG,0.15
16,ACAATCCT,0.0365
17,ATGTGTCA,0.286
18,CAGTCATG,-0.183
19,CAATACTA,-0.00609
20,CTTAGAAG,-0.174
21,AACGACTT,-0.128
22,GACTCCTA,-0.203
23,AGCGTATG,-0.191
24,AGCATCGC,-0.273
25,AAACGTTG,-0.106

row,Sequence,PBM E-score
1,CCCGGGTA,-0.191
2,CATTCTAC,0.163
3,ACGTCGTG,0.137
4,CCCCACAG,-0.131
5,GATCTACC,-0.181
6,GTTCCTCA,-0.00147
7,AGCAATAG,0.0162
8,AACATACA,0.129
9,CGGCTTAA,0.126
10,ACCGTGCG,0.101
11,GTAGGCAA,-0.0121
12,AGAGGCTA,-0.205
13,CGTGCGCC,0.0377
14,ATGTGCGA,-0.112
15,GCGGATAC,0.048
16,ATTGGTCC,-0.00831
17,CACCAAGA,0.121
18,ATGGCGGA,-0.262
19,AACGTTGG,0.0202
20,AGGAGACT,-0.207
21,CACGCTCA,0.0759
22,AGTGGCAA,0.0959
23,ATAAGTCG,-0.0527
24,AACCCTCC,-0.241
25,GGGTAGGA,-0.312

row,Sequence,PBM E-score
1,CTAAAGGA,-0.00812
2,CCGAACGG,0.0219
3,CTCCACAA,0.119
4,GCCCAAAA,0.0256
5,ATTTTTTG,0.202
6,GCAAGCGA,0.0543
7,CGACAACC,-0.125
8,AACCAAGA,0.106
9,AAGGGATA,0.0654
10,CAGCTCGC,-0.143
11,AGTTGAAT,0.182
12,AAAGAGCT,-0.196
13,TCCACCAA,-0.117
14,AATTTCTC,0.151
15,ATGGACTG,-0.116
16,CTGAAAGC,0.0438
17,AGCTATAG,-0.299
18,CGACTACA,0.0376
19,AGCAAAGA,0.0178
20,GGGGGTAC,-0.307
21,GAAATTTC,-0.162
22,AGGACCGC,-0.0202
